From PubChem BioAssay AID886 (National Center for Advancing Translational Sciences (NCATS), 2007)
Hit rate of the full screen: of about 73,000 compounds, about 2,500 (3.4%) were called active. Inconclusive results, whose numbers are uncertain, are shown with a selection of clear calls. Calls follow the shape of the dose curve; as a rule, active = well fitted inhibition curve with a large enough effect; inconclusive = small, poorly fitted or top-dose-only effect; inactive = no such curve, though single readings can be large or run the other way. Where the call is inconclusive, the potency comes from a doubtful curve fit.

biological target: 3-hydroxyacyl-CoA dehydrogenase type-2 (Homo sapiens) (UniProt Q99714); assay: qHTS Assay for Inhibitors of HADH2 (Hydroxyacyl-Coenzyme A Dehydrogenase, Type II); settings: recombinant HADH2, NADH fluorescence, beta-hydroxybutyryl-CoA; activity change, negative = inhibition: at 57.1 µM (top of the series); also: nearly all actives have a fitted effect of over 60% in size
Sequence of UniProt Q99714 (Q99714 whole entry, looked up): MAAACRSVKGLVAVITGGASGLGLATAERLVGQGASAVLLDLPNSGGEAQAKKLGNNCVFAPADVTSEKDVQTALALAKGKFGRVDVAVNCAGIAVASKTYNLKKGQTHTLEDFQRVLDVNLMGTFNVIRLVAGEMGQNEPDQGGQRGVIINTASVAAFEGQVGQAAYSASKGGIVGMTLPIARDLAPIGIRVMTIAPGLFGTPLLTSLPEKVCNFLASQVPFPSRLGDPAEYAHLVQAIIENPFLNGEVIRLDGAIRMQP
Sequence of UniProt Q99714 (Q99714 whole entry, looked up): as above
Outline: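 20 nM HADH2 + cpd, 15 min RT; add 1 mM NAD+/90 uM beta-hydroxybutyryl-CoA; kinetic fluorescence 360/450 nm, 4 min. Tris-HCl pH 9.0, 0.01% Tween-20.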
% is scaled to controls: 0 for no effect and ±100 for the full control effect; potency is read from the fitted curve at half-maximal effect; tags tell the direction and shape of the fitted curve.

Compound | Potency | activity change, negative = inhibition
C/C=C/Cn1c(SCc2ccc(C)cc2)nc2c1c(=O)[nH]c(=O)n2C | inconclusive: 12.6 µM [inhibitor, partial curve] | –
COc1ccc(-c2nc(CSCC(=O)NCC3CCCO3)c(C)o2)cc1OC (centres undefined) | inconclusive: 39.8 µM [inhibitor, single point] | –
COC(=O)c1ccc(COc2ccc3c4c(c(=O)oc3c2)CCC4)o1 | inconclusive: 25.1 µM [inhibitor, single point] | –
CC1S/C(=C(\C#N)C(=O)NCc2ccco2)N(Cc2ccco2)C1=O (centres undefined) | inconclusive: 2 µM [inhibitor, partial curve, poor fit] | –
CCNC(=O)CSc1nc2ccccc2c(=O)n1OC | inactive | –
CCCCc1cc(=O)oc2c(CN(C)C)c(O)ccc12 | active: 3.16 µM | –
c1csc(-c2nnc(-c3ccc(N4CCOCC4)cc3)o2)c1 | inconclusive: 39.8 µM [inhibitor, single point] | –
N#Cc1c(-c2ccco2)c2c([nH]c1=S)CCCC2 | active: 7.94 µM | –
CN=C(NC#N)SCC(=O)c1ccc(Cl)cc1Cl | inactive | –
CCN1CCN(Cc2c(O)ccc3c(=O)c(-c4ccccc4OC)coc23)CC1 | inconclusive: 20 µM [inhibitor, partial curve] | –
O=C(CSc1nnc(Cn2c(=O)sc3ccccc32)n1CCc1ccccc1)N1CCCC1 | inconclusive: 25.1 µM [inhibitor, single point] | –
CCOC(=O)c1cc(-c2ccc(N)cc2)sc1N | inconclusive: 31.6 µM [inhibitor, partial curve] | –
COc1ccc(-c2nc(C#N)c(NCc3ccccc3Cl)o2)cc1 | active: 31.6 µM | –
CC1=C(C)CS(=O)N(c2ccc(S(N)(=O)=O)cc2)C1 (centres undefined) | inconclusive: 2.51 µM [inhibitor, full curve] | –
CCn1c(C)c(CCC(=O)O)c(=O)n2nc(-c3ccccc3OC)cc12 | active: 25.1 µM | –
Cn1cnnc1SCC(=O)Nc1sc2c(c1C#N)CCCCC2 | inconclusive: 31.6 µM [inhibitor, single point] | –
CN(C)Cc1ccccc1-c1cncnc1NCc1cccnc1 | inconclusive: 15.8 µM [inhibitor, partial curve] | –
COC(=O)C1C2C=CC3(CN(Cc4cccs4)C(=O)C13)O2 (centres undefined) | inconclusive: 39.8 µM [inhibitor, single point] | –
Cc1cc(O)c2c(-c3ccccc3)cc(=O)oc2c1 | inactive | –
Oc1cc2c(cc1O)[C@H]1c3ccc(O)c(O)c3OC[C@@]1(O)C2 | active: 0.0631 µM | –
CC(Sc1nc(N2CCOCC2)c2c(c1C#N)CC(C)(C)OC2)C(=O)Nc1ccccc1 (centres undefined) | inconclusive: 39.8 µM [inhibitor, single point] | –
Cc1c(NS(=O)(=O)c2ccccc2)cc(Cl)c(O)c1C | active: 3.16 µM | –
COCCCNC(=O)c1c(N)n(-c2cccc(S(N)(=O)=O)c2)c2nc3ccccc3nc12 | inconclusive: 31.6 µM [inhibitor, single point] | –
COC(=O)Cn1c(=NC(=O)CSCC(=O)NC2CCCCC2)sc2cc(OC)ccc21 | inconclusive: 39.8 µM [inhibitor, single point] | –
COc1ccc(N/C=C2/CCCCC2=O)cc1 | inactive | –

Compound | Potency | activity change, negative = inhibition
O=C(CCSc1ccccc1)NCCN1CCOCC1 | inconclusive: 25.1 µM [inhibitor, single point] | –
CCc1ccccc1NC(=O)c1nnn(CC(=O)Nc2cccc(C)c2)c1N | inconclusive: 39.8 µM [inhibitor, single point] | –
CCOc1ccccc1C(=O)Nc1cc(OC)ccc1OC | inconclusive: 31.6 µM [inhibitor, single point] | –
COc1ccc(-c2ccc(-c3nnn(CC(=O)N4CCOCC4)n3)cc2)cc1 | inconclusive: 39.8 µM [inhibitor, single point] | –
CCNc1cc2n(c(=O)n1)CCc1cc(OC)c(OC)cc1-2 | active: 25.1 µM | –
CN(C)C=Nc1ccc2nn(-c3ccccc3)nc2c1 | inconclusive: 39.8 µM [inhibitor, single point] | –
Cc1cc2c(N)cccc2nn1 | inconclusive: 0.794 µM [inhibitor, full curve] | –
COc1ccc(NC(=O)CC2Oc3ccc(C)cc3NC2=O)cc1 (centres undefined) | inconclusive: 25.1 µM [inhibitor, single point] | –
COc1ccc2c(c1)Cc1cc(N=[N+]([O-])c3ccc4c(c3)Cc3cc(OC)ccc3-4)ccc1-2 | inconclusive: 3.16 µM [inhibitor, single point] | –
COc1ccccc1OCC(=O)Nc1ccc(S(=O)(=O)NC(C)=O)cc1 | inconclusive: 25.1 µM [inhibitor, partial curve] | –
FC(F)(F)C(Cl)Br (centres undefined) | active: 39.8 µM | –
CCCc1cc(=O)oc2cc(C)cc(OCC(=O)O)c12 | active: 25.1 µM | –
Oc1ccc(C=Nc2cccc3ncccc23)c(O)c1 | inconclusive: 15.8 µM [inhibitor, partial curve] | –
COc1ccccc1-c1nc(C#N)c(N2CCC(Cc3ccccc3)CC2)o1 | inconclusive: 31.6 µM [inhibitor, single point] | –
COc1ccc(N2C(=O)C(Cl)=C(N3CCCC3)C2=O)cc1 | inconclusive: 31.6 µM [inhibitor, single point] | –
CN(C)c1ccc(-c2nccc(Nc3ccc(F)cc3)n2)cc1 | inconclusive: 39.8 µM [inhibitor, single point] | –
O=C1C(Cl)=C(Nc2ccc(S(=O)(=O)Nc3ccccn3)cc2)C(=O)c2ccccc21 | active: 2.51 µM | –
COc1ccc2c(CN(C)c3ccccc3)cc(=O)oc2c1 | inconclusive: 39.8 µM [inhibitor, single point] | –
COC(=O)c1ccc(CSc2ccc3nnc(-c4cccnc4)n3n2)o1 | inactive | –
COC(=O)C(CC(=O)c1ccc(Br)cc1)n1ccnc1 (centres undefined) | inconclusive: 3.16 µM [inhibitor, full curve] | –
Fc1ccc(-c2nc3nc4ccccc4nc3n2Cc2ccco2)cc1 | inactive | –
CN(C)c1ncc2nc(-c3ccccc3)c(=O)n(C)c2n1 | inactive | –
COC(=O)NC(/C(C(=O)OC)=C(\C)NCc1ccccc1)c1ccccc1 (centres undefined) | – | inactive: 8.17% [at 11.4 µM]
COc1ccc2oc(C(=O)C3CC3)c(NC(=O)CCCN3C(=O)c4ccccc4C3=O)c2c1 | inactive | –
CCN=C1SC(C(=O)Nc2cccc(C(=O)O)c2)CC(=O)N1CC (centres undefined) | inconclusive: 3.16 µM [inhibitor, full curve] | –

Compound | Potency | activity change, negative = inhibition
O=C1CN(/N=C\c2ccc([N+](=O)[O-])o2)C(=O)N1 | inconclusive: 7.94 µM [inhibitor, partial curve] | –
CC(C)(C)NC(=O)C1CCCN(S(=O)(=O)c2cccc3cccnc23)C1 (centres undefined) | inactive | –
COc1ccc(C2C3=C(CC(C)(C)CC3=O)Nc3c2c(=O)[nH]c(=O)n3Cc2ccccc2)cc1OC (centres undefined) | active: 20 µM | –
COc1ccccc1CNc1ncncc1-c1ccc(N(C)C)cc1 | inconclusive: 25.1 µM [inhibitor, partial curve] | –
CCOC(=O)C1=C(C)OC(N)=C(C#N)C1c1cc(OC)c2c(c1)OCO2 (centres undefined) | inconclusive: 31.6 µM [inhibitor, partial curve] | –
O=C1SC(c2ccccc2)=N/C1=C/c1ccco1 | active: 15.8 µM | –
CN(C)c1ccc(NC(=S)c2ccccn2)cc1 | inconclusive: 15.8 µM [inhibitor, partial curve] | –
COc1ccc(-c2ccc(N)[n+](CCCC(=O)O)n2)cc1 | inconclusive: 0.004 µM [inhibitor, full curve, poor fit] | –
COc1ccc(CNc2ccnc(-c3c(C)noc3C)n2)c(OC)c1 | active: 10 µM | –
O=C1NCCCC2c3cc(O)c4ccccc4c3OC12N1CCCCC1 (centres undefined) | inconclusive: 3.16 µM [inhibitor, partial curve] | –
O=C(CSc1nc2c(c(C(F)(F)F)n1)CCc1ccccc1-2)NCc1ccco1 | inconclusive: 31.6 µM [inhibitor, single point] | –
O=C(Oc1ccccc1)N1CCC[C@@]2(CCN(c3ncccn3)C2)C1 | inactive | –
COc1ccc(CNC(=O)Cc2nn(C)c(=O)c3ccccc23)cc1 | inconclusive: 1 µM [inhibitor, single point] | –
Cc1ccc(C2CC(=O)c3cnc(N4CCN(c5ccccc5)CC4)nc3C2)cc1 (centres undefined) | active: 25.1 µM | –
O=C(COC(=O)c1cnccn1)Nc1ccc2c(c1)OCO2 | inconclusive: 39.8 µM [inhibitor, single point] | –
N=C1C(c2nc3ccccc3[nH]2)=C(O)CN1c1ccccc1 | inconclusive: 39.8 µM [inhibitor, single point] | –
Clc1ccc(-n2nnnc2-c2ccccc2)cc1 | inconclusive: 25.1 µM [inhibitor, single point] | –
CCOC(=O)c1ccc(NC(=O)CSc2nnc(-c3cccs3)n2C)cc1 | active: 25.1 µM | –
COC(=O)c1ccc(C#CC(NP(=O)(c2ccccc2)c2ccccc2)c2ccccc2)cc1 (centres undefined) | active: 20 µM | –
CCOC(=O)C1=C(C)Nc2nc(SC)nn2C1c1ccc(C(=O)OC)cc1 (centres undefined) | inactive | –
C/C(Cl)=C/Cn1c(SCc2ccc(Cl)cc2)nc2c1c(=O)[nH]c(=O)n2C | inconclusive: 25.1 µM [inhibitor, partial curve] | –
COc1cccc(-c2csc(N3CCN(C(=O)C4CCCCC4)CC3)n2)c1 | inconclusive: 31.6 µM [inhibitor, single point] | –
N#Cc1nc(N2CCCCC2)nc(N2CCOCC2)n1 | inconclusive: 6.31 µM [inhibitor, single point] | –
CN(C)c1ccc2c(O)cc(=O)n(C)c2c1 | inconclusive: 39.8 µM [inhibitor, single point] | –
